Assay results from PubChem BioAssay AID759 (NMMLSC, 2007).
Hit rate of the full screen: of about 190,000 compounds, about 270 (0.14%) were called active. Inconclusive results, whose numbers are uncertain, are shown with a selection of clear calls.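 How the source made its calls: active means GTP binding activity at least 20% away from the 100% baseline, either lowered as inhibitor or raised as activator; inconclusive means flagged as likely green fluorescent, judged across all proteins in the well; inactive means the rest.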

target: GTPase HRas (Homo sapiens) (UniProt P01112); assay: HRas wt fluorescent GTP binding changes, either direction – biochemical, wildtype, bead-based flow cytometry, multiplex, primary screen (AID 759); conditions: GST-Ras wt beads, Bodipy-FL-GTP binding, at 10 µM, actives lie on both sides;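 further: 0% = unlabeled GTP competition control and 100% = no-compound control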
UniProt P01112, sequence (P01112 whole entry, looked up): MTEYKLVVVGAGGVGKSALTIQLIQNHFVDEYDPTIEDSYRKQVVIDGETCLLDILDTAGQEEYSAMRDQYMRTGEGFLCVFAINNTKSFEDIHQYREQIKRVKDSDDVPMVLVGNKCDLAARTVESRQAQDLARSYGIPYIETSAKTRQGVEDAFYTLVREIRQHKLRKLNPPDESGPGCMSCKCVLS

Compound	GTP binding activity
COc1ccccc1NC(=O)c1ccc(NC(=O)COC(=O)CCC2CCCC2)cc1	inconclusive: 96%
CS(=O)(=O)NN1C(=O)c2ccccc2NC12CCCC2	inactive: 97%
CCOC(=O)c1c(C)[nH]c(C)c1C(=O)COc1ncnc2cc([N+](=O)[O-])ccc12	active: 70%
Brc1ccc(OCc2ccccc2)c(CNCc2ccncc2)c1	inconclusive: 94%
Cc1cc(C)nc(-n2nc(C)cc2NC(=O)c2cccc(S(=O)(=O)N3CCCCC3)c2)n1	inconclusive: 96%
Cc1nn(Cc2ccccc2)c(C)c1NC(=O)CSc1nc2c(c(C(F)(F)F)n1)CCc1ccccc1-2	inactive: 85%
O=C(Nc1cc(C(=O)N2CCCC2)ccc1N1CCCC1)c1ccccc1F	inconclusive: 108%
CC(=O)Nc1cc2c(cc1NC(=O)Cn1nc(-c3ccccc3F)ccc1=O)OCCO2	inconclusive: 103%
O=c1[nH]cnc2c1C(c1ccccc1[N+](=O)[O-])c1c(nc[nH]c1=O)O2	inconclusive: 83%
O=C(N/N=C/c1cc2ccccc2nc1Cl)/C(=C/c1cccs1)NC(=O)c1ccccc1	inconclusive: 93%
Cc1cc(C)cc(C(=O)NCC(=O)OC(C)C(=O)N(C)c2ccccc2)c1 (centres undefined)	inactive: 99%
CN(NS(=O)(=O)c1ccc(Cl)cc1)c1nc(C(F)(F)F)nc2ccccc12	inconclusive: 96%
CC1Cc2ccccc2N1C(=O)C1CCCN(S(=O)(=O)c2cccc3cccnc23)C1 (centres undefined)	inactive: 103%
COc1ccc(-n2c(SCC(=O)NCCCN3CCCC3=O)nnc2C(C)N2CCCCC2)cc1 (centres undefined)	inconclusive: 93%
COc1ccc(NC(=O)c2ccc3c(c2)OCO3)cc1[N+](=O)[O-]	inconclusive: 95%
O=C(COC(=O)c1ccco1)Nc1cccc(Br)c1	inconclusive: 103%
COc1ccccc1NC(=O)c1cccc(NC(=O)c2ccco2)c1	inconclusive: 95%
COCc1nnc(NC(=O)CSc2ccc(C)cc2)s1	inconclusive: 110%
Cc1ccc(-n2[nH]c(C)c(C=Nc3ccc(S(=O)(=O)Nc4nccs4)cc3)c2=O)cc1C	inconclusive: 86%
N/C(CSc1nc(-c2ccccc2)c(-c2ccccc2)o1)=N\O	inconclusive: 88%
O=C(c1ccc(S(=O)(=O)c2ccccc2Cl)c([N+](=O)[O-])c1)N1CCCCCC1	inactive: 101%
COc1ccc(/C=N/NC(=O)c2cccc(O)c2)cc1Cn1nc(C)c([N+](=O)[O-])c1C	inconclusive: 91%
CN(C)c1ccc(-c2nn3c(-c4ccc(Cl)cc4Cl)nnc3s2)cc1	inconclusive: 104%
N#Cc1cc(C#N)c(N2CCN(c3cccc(Cl)n3)CC2)nc1N	inconclusive: 83%
CCCCn1cnc2c(sc3nc4c(cc32)CSC(C)(C)C4)c1=O	inconclusive: 100%
COc1ccc(N=c2oc3c(OC)cccc3cc2C(=O)NCc2ccco2)cc1OC	inconclusive: 98%

Compound	GTP binding activity
O=C(Nc1cnn(Cc2c(Cl)cccc2Cl)c1)c1ccc([N+](=O)[O-])cc1	inconclusive: 94%
OCC1(Cc2ccc(Cl)cc2)CCN(CCCc2ccccc2)CC1	inconclusive: 97%
COc1ccc(N2CCN(C(=O)Cn3cncn3)CC2)cc1	inconclusive: 93%
O=C(c1c[nH]c2ccccc12)N1CCOCC1	inconclusive: 92%
CC1=CC(=C(C#N)C#N)c2ccccc2N1C	inconclusive: 90%
CCOc1ccc(-n2c(=O)c3sccc3n(Cc3cccc([N+](=O)[O-])c3)c2=O)cc1	inactive: 102%
COc1ccc(N/N=C(\C#N)C(=N)N2CCOCC2)cc1	inconclusive: 92%
Cc1cc(C)nc(/N=C(\N)Nc2ccc(F)c([N+](=O)[O-])c2)n1	inactive: 101%
Cc1ccccc1OCCn1cc(C(=O)O)c2ccccc21	active: 124% [activator]
O=C1C(Cl)=C(N2CCN(Cc3ccccc3)CC2)C(=O)N1Cc1ccccc1	inconclusive: 95%
COc1ccc(C(=O)N2CC3(CC(c4ccc(Cl)cc4)=NO3)C[C@H]2C(=O)NCC(N)=O)cc1 (some centres undefined)	inactive: 97%
CCCOC(=O)c1ccc(NC(=O)Oc2ccccc2)cc1	inconclusive: 94%
O=C(Nc1ccc(N2CCN(C(=O)c3cccs3)CC2)cc1)c1cccnc1Cl	inconclusive: 94%
COC(=O)C1=C(C)NC(=O)/C1=C\c1cc(C)n(-c2c(C)cccc2C)c1C	active: 122% [activator]
COc1ccc(OC)c(NC(=S)N2CCN(c3ccccn3)CC2)c1	inconclusive: 89%
COc1cccc(/C=N/Nc2nn3cnnc3c3ccccc23)c1O	active: 59%
N#Cc1c(N)nc2c(c1-c1ccncc1)CCCC2	inconclusive: 109%
COc1ccc(CCNC(=O)c2ccc(CSc3ccccc3)o2)cc1	inconclusive: 88%
CC/C(=N\Nc1ccccc1[N+](=O)[O-])c1ccc(O)cc1	inconclusive: 94%
CCOc1ccc(NC(=S)N(CCN2CCOCC2)Cc2cc3cc4c(cc3[nH]c2=O)OCO4)cc1	inconclusive: 93%
O=C(CSc1nnc(Cc2ccccc2)o1)c1ccccc1	inconclusive: 93%
C#CC[N+]1(CC#Cc2ccc(C)cc2)CCCCC1	inactive: 103%
CCOc1ccc(/C=C2\SC(N3CCc4ccccc4C3)=NC2=O)cc1	inconclusive: 84%
CC(C)(C)c1ccc2c(c1)C(=O)c1ccccc1C2=O	inconclusive: 96%
COc1ccc(C(=O)N2CCCCC2)cc1S(=O)(=O)Nc1ccccc1	inconclusive: 98%
CCn1c(SCc2ccc(C(=O)Nc3nccs3)cc2)nnc1-c1ccc(N)cc1	inconclusive: 94%

Compound	GTP binding activity
COc1ccc(OCC(=O)N2CCN(S(=O)(=O)c3ccccc3[N+](=O)[O-])CC2)cc1	inactive: 93%
C/C(=N\OCC(=O)NC12CC3CC(CC(C3)C1)C2)c1cc2ccccc2o1	inactive: 98%
CCC(C(=O)Nc1ccccc1C(=O)N1CCOCC1)N1C(=O)c2ccccc2C1=O (centres undefined)	inconclusive: 91%
O=C(C(Cl)Cl)N1c2ccccc2OCC1c1ccccc1 (centres undefined)	inactive: 100%
COc1ccccc1CNC(=O)C(=O)NCC(c1ccco1)N1CCOCC1 (centres undefined)	inconclusive: 120%
COCCn1nnnc1CN(Cc1ccco1)Cc1cc2cc3c(cc2[nH]c1=O)OCO3	inconclusive: 105%
CCN1CCN(C(c2cc(OC)c(OC)c(OC)c2)c2nnnn2C(C)C)CC1 (centres undefined)	inconclusive: 101%
CCOc1ccc(-c2nnc(-c3cccs3)o2)cc1OCC	inconclusive: 94%
CCOC(=O)N1CCN(C(c2cccc(OC)c2)c2sc3nc(C)nn3c2O)CC1 (centres undefined)	inconclusive: 102%
Cc1cc(C(=O)NCC23CC4CC(CC(C4)C2)C3)c(C)o1	inactive: 100%
CCN=c1scc(-c2ccc3c(c2)NC(=O)CO3)n1N=C1CCCC1	inconclusive: 105%
CC(=O)OC(C)CS(=O)(=O)c1ccccc1 (centres undefined)	inactive: 97%
CC(C)(C)c1ccc(OCCNC(=O)Cc2ccc(F)cc2)cc1	inactive: 102%
CC1CCCCC1NC(=O)COC(=O)CNC(=O)c1cccc(F)c1 (centres undefined)	inactive: 92%
Cc1ccc(S(=O)(=O)N(CC(=O)N(C)C)c2cccc([N+](=O)[O-])c2)cc1	inconclusive: 95%
CCOC(=O)C(CC)(CCC(=O)O)c1csc(N)n1 (centres undefined)	inconclusive: 108%
COc1ccc(CCNC(=O)Nc2ccc([N+](=O)[O-])cc2)cc1OC	inactive: 96%
Cc1noc(NS(=O)(=O)c2ccc(NC(=O)CSc3n[nH]c(-c4ccccc4)n3)cc2)c1C	inconclusive: 90%
O=C(NCCc1ccc(Cl)cc1)/C(=C/c1cccnc1)NC(=O)c1ccccc1	inactive: 101%
Oc1c(Cl)cc(Cl)cc1C=Nc1ccccc1N1CCCC1	inconclusive: 91%
CCC/C(O)=C1\C(=O)CCCC1=NCCc1c(C)[nH]c2ccc(OC)cc12	inactive: 99%
C=CCOc1ccc(CN(C)CC(=O)Nc2ccc3c(c2)CCC3)cc1	inconclusive: 93%
COc1ccc(CNC(=O)/C(C#N)=C2\N=C(NC(=O)c3cccs3)c3ccccc32)cc1	inactive: 99%
CC(C)(C)c1ccccc1NC(=O)Cn1c(=O)cnc2ccccc21	inconclusive: 102%
CSc1c(CC(=O)Nc2ccc(F)cc2)n(Cc2ccccc2)c2ccccc12	inactive: 99%
O=c1ccn(Cc2ccccc2Cl)cc1	inconclusive: 105%

Compound	GTP binding activity
Cc1ccc(C(=O)COc2nc(C)nc3ccccc23)cc1	inactive: 97%
CCCCCCCCCCS(=O)(=O)N/N=C/c1ccc(O)cc1	inconclusive: 89%
Cc1cccc(NC(=S)Nc2ccc(Cl)c(Cl)c2)c1	inactive: 95%
Cn1c(=O)c2c(ncn2CC(=O)N/N=C/c2cn[nH]c2-c2ccc(F)cc2)n(C)c1=O	inconclusive: 95%
S=C(c1ccc(-c2ccccc2)o1)N1CCCCC1	inconclusive: 88%
CCCCNC(=S)N(Cc1ccco1)Cc1cc2cc3c(cc2[nH]c1=O)OCCO3	inconclusive: 101%
COC(=O)C(NS(=O)(=O)c1ccc(NC(C)=O)cc1)C(C)C (centres undefined)	inconclusive: 95%
C=CCOC(=O)CCCC(=O)NC1CCCCC1	inconclusive: 104%
CCOC(=O)N1CCN(C(=O)c2cccc(NC(=O)c3ccco3)c2)CC1	inconclusive: 97%
O=C1c2ccccc2C(=O)c2c1cccc2N1CCCC1	inconclusive: 97%
CCNC(=O)c1cc2c(=O)n3cccc(C)c3nc2n(CCc2ccccc2)c1=N	active: 71%
COc1ccc(-c2csc(Nc3ccc(S(N)(=O)=O)cc3)n2)cc1OC	inconclusive: 90%
CCOC(=O)Cc1csc(NC(=O)CSc2nc(-c3ccccc3)c(C#N)c(=O)[nH]2)n1	inactive: 84%
CC12CS(=O)(=O)CC1SC(=S)N2Cc1ccccc1 (centres undefined)	inactive: 98%
COc1cc(NC(=O)c2ccc(Br)o2)c(C(=O)O)cc1OC	inconclusive: 91%
OC(COc1c(Cl)cc(Cl)cc1Cl)CN1CCCCC1 (centres undefined)	inconclusive: 105%
Cc1c(C(=O)NCCN2CCOCC2)oc2ccc(S(=O)(=O)N3CCCCCC3)cc12	inconclusive: 106%
Cc1c(/C=N/NC(=O)CNc2ccccc2)c2ccccn2c1C(=O)c1ccncc1	inconclusive: 89%
COc1ccc(NC(=O)COC(=O)CNC(=O)C2CCCCC2)cc1	inconclusive: 97%
CCc1nnc(NC(=O)CSc2nnc(-c3ccoc3C)n2-c2ccc(C)cc2)s1	inconclusive: 92%
OCC1(CCOc2ccccc2)CCN(C2Cc3ccccc3C2)CC1	inactive: 94%
COc1ccc(-c2noc(CCC(=O)NCCCN3CCC(C)CC3)n2)cc1	inconclusive: 102%
CCOC(=O)C1=C(C)NC(=NC)SC1c1ccccc1 (centres undefined)	inconclusive: 96%
CCN(CC)S(=O)(=O)c1ccc(OC)c(NC(=O)c2ccc3c(c2)OCO3)c1	inconclusive: 90%
COc1ccc(NC(=O)CSc2ncccc2C(=O)OC(C)C)cc1OC	inconclusive: 104%
CN(C)CCNC(=S)Nc1ccc(F)c(F)c1F	inactive: 93%
